Measured values published in US20020032228A1 (priority 2000, published 2002).

Assays:
[1] = pH 5.5

Compound | time the adduct appeared stable [1] | toxicity for cells (cells)
CCCCCC(O)/C=C/[C@H]1C(n2ccnc2)CC(=O)[C@H]1C/C=C\CCCC(=O)O (stereo partly drawn) [PGE2-imidazole, 11-deoxy-11-imidazolyl-PGE2] | approximately 12 hours | not toxic for cells
prostaglandin E2-histidine [PGE2-histidine] | – | not toxic for cells
